# Measurements: the supplement of paper PMC8728848
# The list shows a part of the results.
# What was measured:
# Assay in all cases: glycan array binding signal (z-score within array); higher = stronger binding
# Settings in all cases: glycan notation: IUPAC condensed, linker removed
# [1] = biological target: Gal(b1-3)[Fuc(a1-4)]GlcNAc(b1-3)Gal(b1-4)GlcNAc
# In short: (§1)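 Arrays were curated from the Consortium for Functional Glycomics database, 3228 in total, and kept only where the protein sequence was available. Binding is expressed as a within-array Z-score. This score was averaged across arrays of the same protein sequence at different concentrations or buffers and across linkers, and negative values can be read as non-binding.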
# [2] = biological target: Gal(b1-3)[Fuc(a1-4)]GlcNAc(b1-3)Gal(b1-4)[Fuc(a1-3)]GlcNAc
# In short: as §1
# [3] = biological target: Gal(b1-3)[GlcNAc(b1-6)]GalNAc
# In short: as §1
# [4] = biological target: Gal(b1-3)[Neu5Ac(a2-6)]GalNAc
# In short: as §1
# [5] = biological target: Gal(b1-3)[Neu5Ac(a2-6)]GlcNAc(b1-6)Gal(b1-4)Glc
# In short: as §1
# [6] = biological target: Gal(b1-3)[Neu5Ac(b2-6)]GalNAc
# In short: as §1
# [7] = biological target: Gal(b1-4)Gal
# In short: as §1
# [8] = biological target: Gal(b1-4)GalNAc(a1-3)[Fuc(a1-2)]Gal(b1-4)GlcNAc
# In short: as §1
# [9] = biological target: Gal(b1-4)GalNAc(b1-3)[Fuc(a1-2)]Gal(b1-4)GlcNAc
# In short: as §1
# [10] = biological target: Gal(b1-4)Glc
# In short: as §1
# [11] = biological target: Gal(b1-4)Glc6S
# In short: as §1
# [12] = biological target: Gal(b1-4)GlcNAc
# In short: as §1
# [13] = biological target: Gal(b1-4)GlcNAc(a1-6)Gal(b1-4)GlcNAc
# In short: as §1
# [14] = biological target: Gal(b1-4)GlcNAc(b1-2)Man
# In short: as §1
# [15] = biological target: Gal(b1-4)GlcNAc(b1-2)Man(a1-3)Man(b1-4)GlcNAc(b1-4)GlcNAc
# In short: as §1
# [16] = biological target: Gal(b1-4)GlcNAc(b1-2)Man(a1-3)[Gal(b1-4)GlcNAc(b1-2)Man(a1-6)]Man(b1-4)GlcNAc(b1-4)GlcNAc
# In short: as §1
# [17] = biological target: Gal(b1-4)GlcNAc(b1-2)Man(a1-3)[Gal(b1-4)GlcNAc(b1-2)Man(a1-6)]Man(b1-4)GlcNAc(b1-4)[Fuc(a1-6)]GlcNAc
# In short: as §1
# [18] = biological target: Gal(b1-4)GlcNAc(b1-2)Man(a1-3)[Gal(b1-4)GlcNAc(b1-2)][GlcNAc(b1-4)]Man(b1-4)GlcNAc(b1-4)GlcNAc
# In short: as §1
# [19] = biological target: Gal(b1-4)GlcNAc(b1-2)Man(a1-3)[GlcNAc(b1-2)Man(a1-6)]Man(b1-4)GlcNAc(b1-4)GlcNAc
# In short: as §1
# [20] = biological target: Gal(b1-4)GlcNAc(b1-2)Man(a1-3)[Man(a1-6)]Man(b1-4)GlcNAc(b1-4)GlcNAc
# In short: as §1
# [21] = biological target: Gal(b1-4)GlcNAc(b1-2)Man(a1-6)Man(b1-4)GlcNAc(b1-4)GlcNAc
# In short: as §1
# [22] = biological target: Gal(b1-4)GlcNAc(b1-2)Man(a1-6)[GlcNAc(b1-2)Man(a1-3)]Man(b1-4)GlcNAc(b1-4)GlcNAc
# In short: as §1
# [23] = biological target: Gal(b1-4)GlcNAc(b1-2)Man(a1-6)[Man(a1-3)]Man(b1-4)GlcNAc(b1-4)GlcNAc
# In short: as §1
# [24] = biological target: Gal(b1-4)GlcNAc(b1-2)[Gal(b1-4)GlcNAc(b1-4)]Man(a1-3)[Gal(b1-4)GlcNAc(b1-2)Man(a1-6)]Man(b1-4)GlcNAc(b1-4)GlcNAc
# In short: as §1
# [25] = biological target: Gal(b1-4)GlcNAc(b1-2)[Gal(b1-4)GlcNAc(b1-4)]Man(a1-3)[Gal(b1-4)GlcNAc(b1-2)[Gal(b1-4)GlcNAc(b1-6)]Man(a1-6)]Man(b1-4)GlcNAc(b1-4)GlcNAc
# In short: as §1
# [26] = biological target: Gal(b1-4)GlcNAc(b1-2)[Gal(b1-4)GlcNAc(b1-4)]Man(a1-3)[GlcNAc(b1-4)][Gal(b1-4)GlcNAc(b1-2)Man(a1-6)]Man(b1-4)GlcNAc(b1-4)GlcNAc
# In short: as §1
# [27] = biological target: Gal(b1-4)GlcNAc(b1-2)[Gal(b1-4)GlcNAc(b1-4)]Man(a1-3)[GlcNAc(b1-4)][Gal(b1-4)GlcNAc(b1-2)[Gal(b1-4)GlcNAc(b1-6)]Man(a1-6)]Man(b1-4)GlcNAc(b1-4)GlcNAc
# In short: as §1
# [28] = biological target: Gal(b1-4)GlcNAc(b1-2)[Gal(b1-4)GlcNAc(b1-6)]Man(a1-6)[Gal(b1-4)GlcNAc(b1-2)Man(a1-3)]Man(b1-4)GlcNAc(b1-4)GlcNAc
# In short: as §1
# [29] = biological target: Gal(b1-4)GlcNAc(b1-2)[Gal(b1-4)GlcNAc(b1-6)]Man(a1-6)[GlcNAc(b1-4)][Gal(b1-4)GlcNAc(b1-2)Man(a1-3)]Man(b1-4)GlcNAc(b1-4)GlcNAc
# In short: as §1
# [30] = biological target: Gal(b1-4)GlcNAc(b1-3)Gal(b1-3)GlcNAc
# In short: as §1
# [31] = biological target: Gal(b1-4)GlcNAc(b1-3)Gal(b1-4)Glc
# In short: as §1
# [32] = biological target: Gal(b1-4)GlcNAc(b1-3)Gal(b1-4)GlcNAc
# In short: as §1
# [33] = biological target: Gal(b1-4)GlcNAc(b1-3)Gal(b1-4)GlcNAc(b1-3)Gal(b1-4)GlcNAc
# In short: as §1
# [34] = biological target: Gal(b1-4)GlcNAc(b1-3)Gal(b1-4)[Fuc(a1-3)GlcNAc(b1-6)]Gal(b1-4)Glc
# In short: as §1
# [35] = biological target: Gal(b1-4)GlcNAc(b1-3)Gal(b1-4)[Fuc(a1-3)]GlcNAc(b1-3)Gal(b1-4)[Fuc(a1-3)]GlcNAc
# In short: as §1
# [36] = biological target: Gal(b1-4)GlcNAc(b1-3)GalNAc
# In short: as §1
# [37] = biological target: Gal(b1-4)GlcNAc(b1-3)[Gal(b1-4)GlcNAc(b1-6)]Gal(b1-4)GlcNAc
# In short: as §1
binder,measurement,setting,value
Gal 9 (Canis lupus) (protein) MAFSSSQPPYLSPGVPFSGKIQGGLQDGLKITINGTILYCNGTRFAVNFHSGHSDSDIAFHFNPRFEEGGYVVCNTKQKGSWGSEERKMQMPFQMGNPFELCFMVNSCDFKVTVNGSHFTQYSHRVPFHYVDTLSITGAVQLSYISFQSPGVWQSSSAPITQTVIHTVQTTPGQPFPNPIIPPTAYPTPTYPMPFFTSIPGGLYPSKSIIVSGTVLPGAKRFHINLRSGNDIAFHLNPRFNENTVVRNMQINNSWGSEERSLPRKMPFVQGQSFSVWIMCEGHCFKVAVDGEHLFEYYHRLKNLLAINNMEVAGDVQLTHVQT,glycan array binding signal (z-score),[1],0.391
same,glycan array binding signal (z-score),[2],-0.336
same,glycan array binding signal (z-score),[3],0.285
same,glycan array binding signal (z-score),[4],-0.199
same,glycan array binding signal (z-score),[5],0.09
same,glycan array binding signal (z-score),[6],-0.334
same,glycan array binding signal (z-score),[7],-0.328
same,glycan array binding signal (z-score),[8],1.11
same,glycan array binding signal (z-score),[9],-0.339
same,glycan array binding signal (z-score),[10],-0.213
same,glycan array binding signal (z-score),[11],0.154
same,glycan array binding signal (z-score),[12],-0.3
same,glycan array binding signal (z-score),[13],0.381
same,glycan array binding signal (z-score),[14],0.016
same,glycan array binding signal (z-score),[15],0.09
same,glycan array binding signal (z-score),[16],0.105
same,glycan array binding signal (z-score),[17],0.194
same,glycan array binding signal (z-score),[18],-0.022
same,glycan array binding signal (z-score),[19],0.169
same,glycan array binding signal (z-score),[20],0.089
same,glycan array binding signal (z-score),[21],0.23
same,glycan array binding signal (z-score),[22],0.132
same,glycan array binding signal (z-score),[23],-0.15
same,glycan array binding signal (z-score),[24],0.362
same,glycan array binding signal (z-score),[25],0.012
same,glycan array binding signal (z-score),[26],0.239
same,glycan array binding signal (z-score),[27],0.27
same,glycan array binding signal (z-score),[28],0.215
same,glycan array binding signal (z-score),[29],0.042
same,glycan array binding signal (z-score),[30],0.186
same,glycan array binding signal (z-score),[31],0.099
same,glycan array binding signal (z-score),[32],0.265
same,glycan array binding signal (z-score),[33],0.513
same,glycan array binding signal (z-score),[34],-0.123
same,glycan array binding signal (z-score),[35],0.213
same,glycan array binding signal (z-score),[36],0.001
same,glycan array binding signal (z-score),[37],0.39
